This passage reports self-cleavage results from the RNAGym collection of RNA variant scans (doi:10.7554/elife.90254).

Read counts are not given, so values of variants with three or more changes are uncertain.

First the molecules themselves.
B1: LINE1-full (parent)
chain: UACGUAGGUGGUUUUCCCCUGAUAGUGCUAAGGGGGCCUGGAAGUUUGGACUGGGCAGAGCUCAACACAGCGUGGCAAAGUGGCUGUGGCUAGACUGCCUCUCUGGAUUCCUCGUCACUCAGCAGGGCAUCUCUGAGAGAAAUGCC

Variants of B1 are the subject of this data set. Kind of data set: self-cleavage, relative activity (ratio to wild type); higher = more cleavage; in vitro, sequencing; the parent is a self-cleaving ribozyme.
Regarding UACGUAGGUGGUUUUCCCCUGAUAGUGCUAAGGGGGUCUGGAAGUUUGGACUGGGCAGAGCUCAACACAGCGUGGCAAAGUGGCUGUGGCUAGACUGCCUCUCUGGAUUCCCCGUCGCACAGCAGGGCAUCUCUGGGAGAACUGCC, the self-cleavage was 0. The figure for UACGUAGGUGGUUUUCCCCUGAUAGUGCUAAGGGGGUCUGGAAGUUUGGACUGGGCAGAGCUCAACACUGCGUGGCAAAGUGGCUGUGGCUAGACUGCCUCUCUGGAUUCCUCGCCACUCAGCAGGGCAUCUCUGAGAGAUAUGCC is 0.02. Consider UACGUAGGUGGUUUUCCCCUGAUAGUGCUAAGGGGGUCUGGAAGUUCGGACUGGGCAGAGCUCAACACAGCGUGGCGAAGUGGCUGUGGCUAGACCGCCUCUCUGGAUUCCUCGUCGCUCAGCAGGGCAUCUCUGAGAGAAAUGCC, for which the self-cleavage amounted to 0. As for UACGUAGGUGGUUUUCCCCUGAUAGUGCUAAGGGGGCUUGGAAGUUUGGACUGGGCAGAGCUCAACACGGCGUGGCAAAGUGGCUGUGGCUAGACUGCCUCUCUGGACUCCUCGUUACUCAGCAGGGCAUCUCUGAGAGAAAUGCC, the figure is 0.6; as for UACGUAGGUGGUUUUCCCCUGAUAGUGCUAAGGGGGCAUGGAAGUUUGGACUGGGCAGGGCUCAACGCAGCGUGGCAAAGUGGCUGUGGCUAGACUGCCUCUCUGGAUUCCUCGUCACUCAGCAGGGCAUCUCUGAGAGAAAUGCC, 0.14; as for UACGUAGGUGGUUUUCCCCUGAUAGUGCUAAGGGGGUCUGGGAGUUUGGACUGGGCAGAGCUCAACACAGCGUGGCAAAGUGGCUGUGGCUAGACUGCCUCUCUGGAUUCCCCGUCACUCAGCAGGGCAUCUCUGAGAGAAAUGCC, 1.59. For UACGUAGGUGGUUUUCCCCUGAUAGUGCUAAGGGGGCUUGGAAGUUUGGACUGGGCAGGGCUCAACACAGCGCGGCAAACUGGCUGUGGCUAGACUGCCUCUCUGGAUUCCUCGUCACUCAGCAGGGCAUCUCUGAGAGAAAUGCC, the self-cleavage was found to be 0.09.

UACGUAGGUGGUUUUCCCCUGAUAGUGCUAAGGGGGUCUGGAAGUUUGGACUGGGCAGUGCUCAACACAGCGUGGCAAAGUGGCUGUGGCUAGACUGCCUCUCUGGAUUCCUCGUCACUCAGCAGGGCAUCUCUGAGAGAAGUGCC: the self-cleavage was determined as 0.63. Consider UACGUAGGUGGUUUUCCCCUGAUAGUGCUAAGGGGGCUUGGGGGUUUGGACUGGGCAGAGCUCAACACAGCGUGGCAAAGUGGCUGUGGCUAGACUGCCUCUCUGGAUUCCUCGUCACUCAGCAGGGCAUCUCUGAGAGAAAUGCC, for which the self-cleavage is 1.1.

For UACGUAGGUGGUUUUCCCCUGAUAGUGCUAAGGGGGCAUGGAAGUUUGGACAGGGCAGAGCUCAACACAGCGUGGCAAAGUGGCUGUGGCUAGACUGCCUCUCUGGAUUCCUCGGCACUCAGCAGGGCAUCUCUGAGAGAAACGCC, the self-cleavage came out at 1.1. Regarding UACGUAGGUGGUUUUCCCCUGAUAGUGCUAAGGGGGUCUGGAAGUUUGGACUGGGCAGAGCUCAACACAGCGUGGCAGAGUGGCUGUGGCUAGACUGCCUCUCUGGAUUCCUCGUCACUCAGCAGGGCAUCUCUGAGAGAAACGCC, the self-cleavage was 1.62. With UACGUAGGUGGUUUUCCCCUGAUAGUGCUAAGGGGGUCUGGAAGUUUGGACUGGGCAGAGCUCAACACGGCGUGGCAGAGUGGCUGUGGCUAGACUGCCCCUCUGGAUUCCUCGUCACUCAGCAGGGCAUCUCUGAGAGGAAUGCC, the self-cleavage was 0.37. Consider UACGUAGGUGGUUUUCCCCUGAUAGUGCUAAGGGGGCAUGGAAGUUUGGACUGGGCAGAGCUCAACACAGUGUGGCAAAGUGGCUGUGGCUAGACUGCCUCUCUGGAUUCCUCGUCACUCAGCAGGGUAUCUCUGAGAGAAAUGCC, for which the self-cleavage was 1.

For UACGUAGGUGGUUUUCCCCUGAUAGUGCUAAGGGGGUCUGGAAGUUCGGACUGGGCAGAGCUCAACACAGCGUGGCAAAGUGGCUGUGGCUAGACUGCCUCUCUGGAUUCCUCGUCACUCAGCAGGGCAUCUCUGAGAGAGAUGCC, the self-cleavage is 2.26. Consider UACGUAGGUGGUUUUCCCCUGAUAGUGCUAAGGGGGCUUGGUAGUUUGGACUGGGCAGAGCUCAACACAGCGUGGCAAAGUGGCUGUGGCCAGACUGCCUCUCUGGAUUCCUUGUCACUCAGCAGGGCAUCUCUGAGAGAAAUGCC, for which the self-cleavage amounted to 0.3.

On to UACGUAGGUGGUUUUCCCCUGAUAGUGCUAAGGGGGCAUGGAAGUUUGGACUGGGCAUAGCUCGACACAGCGUGGCAAAGUGGCUGUGGCUAGACUGCCUCUCUGGAUUCCUCGUCACUCAGCAGGGCAUCUCUGAGAGAAAUGCC, for which the self-cleavage was found to be 0.04. As to UACGUAGGUGGUUUUCCCCUGAUAGUGCUAAGGGGGCACGGAAGUUUGGACUGGGCAGAGCUCAACACAGCGUGGCAAAGUGGCUGUGGCUAGACUGCCUCUCUGGAUUCCUCGUCACUCAGCUGGGCAUCUCUGAGAGAAAUGCC, the self-cleavage came to 2.09. Turning to UACGUAGGUGGUUUUCCCCUGAUAGUGCUAAGGGGGGCUGGAAGUUUGGACCGGGCAGAGCUCAACACAGCGUGGCAAAGUGGCUGUGGCUAGACUGCCUCUCUGGGUUCCUCGUCACUCAGCAGGGCAUCUCAGAGAGAAAUGCC, the self-cleavage came to 1.41. As to UACGUAGGUGGUUUUCCCCUGAUAGUGCUAAGGGGGUCUGGAAGUUUGGACUGGGCAGAGCUCAACACAGCGUGGCAAAGUGGCUGUGGCUAGACUGCCUCCCUGGAUUCCCCGUCACUCAGCAGGGCAUCUCUGAGAGAAAUGCC, the self-cleavage was 0.96. As for UACGUAGGUGGUUUUCCCCUGAUAGUGCUAAGGGGGUCUGGAAGUUUGGACUGGGCAGAGCUCAACACAGCGUGGCAAAGUGGCUGUGGCUAGACUGCCCCUCUGGAUUCCUCGUCACUCAGCAGGGCAUCUCUGAGGGAAAUGCC, the figure is 2.59; as for UACGUAGGUGGUUUUCCCCUGAUAGUGCUAAGGGGGCUUGGAAGUUUGGGCUGGGCAGAGCUCAACACAGCGUGGCAAAGUGGCUGUGGCUAGACUGCCUCUCUGGAUUCCUCGUCACUCAGCAGGGCAUCCCUGAGAGAAAUGCC, 0.99; as for UACGUAGGUGGUUUUCCCCUGAUAGUGCUAAGGGGGGCUGGAAGUCUGGACUGGGCAGAGCUCAACACAGCAUGGCAAAGUGGCUGUGGCUAGACUGCCUCUCUGGAUUCCUCGUCACUCAGCAGGGCAUCUCUGAGAGAAAUGCC, 1.36.

As to UACGUAGGUGGUUUUCCCCUGAUAGUGCUAAGGGGGUCUGGAAGUUUGGACUGGGCAGAGCUCAACACAGCGUGGCAAAGUGGCUGUGGCUAGGCUGCCUCUCUGGAUUCCUCGUCACUCAGCAGGGCAUCUCUGAGAGAAUUGCC, the self-cleavage stood at 0.16. As for UACGUAGGUGGUUUUCCCCUGAUAGUGCUAAGGGGGUCUGGAAGUUUGGACUGGGCAGAGCGCAACACAGCGUGGCAAAGUGGCUGUGGCUAGACUGACUCUCUGGAUUCCUCGUCACUCAGCAGGGCAUCUCUGUGAGAAAUGCC, the self-cleavage was determined as 0.06. The figure for UACGUAGGUGGUUUUCCCCUGAUAGUGCUAAGGGGGUCUGGAAGUUUGGACUGGGCAGAGCACAACACAGCGUGGCAAAGUGGCUGUGGCUAGACUGUCUCUCUGGAUUCCUCGUCACUCGGCAGGGCAUCUCUGAGAGAAAUGCC is 0.04. Consider UACGUAGGUGGUUUUCCCCUGAUAGUGCUAAGGGGGUCUGGAAGUUUGGACUGGGCAGAGCUCAACACAGCGUGGCAAAGUGGCUGUGGCUAGACUGCCUCUCUGGAUUCCUCGUCACUCAGCAGGGCAACCCUGAGAGAAAUGCC, for which the self-cleavage stood at 1.46. In the case of UACGUAGGUGGUUUUCCCCUGAUAGUGCUAAGGGGGGCUGGAAGUUUGGACUGGGCAGAGCUCAACACAGCGAGGCAAAGUGGCUGUGGCUAGACUGCCUCUCUGGAUUCCUCGUCACUCAGCAGGGCAUCUCUGAGAGGAAUGCC, the self-cleavage was determined as 0.45. With UACGUAGGUGGUUUUCCCCUGAUAGUGCUAAGGGGGCAUGGAAGUUUGGACUGGGCGGAGCUCAACACAGCGUGGCAAAGUGGCUGUGGCUAGACUGCCUCUCUGGAUUCCUUGUCACUCAGCAGGGCAUCUCUGAGAGAAACGCC, the self-cleavage stood at 0.77. As for UACGUAGGUGGUUUUCCCCUGAUAGUGCUAAGGGGGCAUGGAAGUUUGGACUGGGCAGAGCUCAACACAGCGUGGCACAGUGGCUGUGGCUAGACUGCCUCUCUGGAUUCCUCGCCACUCAGCAGGGCAUCUCUGAGAGAAAUGCC, the figure is 1.77; as for UACGUAGGUGGUUUUCCCCUGAUAGUGCUAAGGGGGUCCGGAAGUUUGGAUUGGGCAGAGCUCAACACAGCGUGGCAAAGUGGCUGUGGCUAGACUGCCUCUCUGGAUUCCUCGUCACUCAGCAGGGCAUCUCUGAGAGGAAUGCC, 1.58; as for UACGUAGGUGGUUUUCCCCUGAUAGUGCUAAGGGGGCUUGGGAGUUUGGACUGGGCAGAGCUCAACACAGCGUGGCAAAGUGGCUGUGGCUAGACUGCCUCUCUGGAUUCCUCGCCUCUCAGCAGGGCAUCUCUGAGAGAAAUGCC, 1.08. UACGUAGGUGGUUUUCCCCUGAUAGUGCUAAGGGGGCUUGGAAGUUUGGACUGGGCAGAGCUCAACACAGCGUGGCGAAGUGGCUGCGGCUAGACCGCCUCUCUGGAUUCCUCGUCACUCAGCAGGGCAUCUCUGAGAGGAAUGCC: the self-cleavage came out at 0.27. Take UACGUAGGUGGUUUUCCCCUGAUAGUGCUAAGGGGGUCUGGAAGUUUGGACUGGGCAGAGCUCAACACAGCGCGGCAAAGUGGCGGUGGCUAGACUGCCUCUCUGGUUUCCUCGUCACUCAGCAGGGCAUCUCUGAGAGAAAUGCC: the self-cleavage is 0.04. Consider UACGUAGGUGGUUUUCCCCUGAUAGUGCUAAGGGGGCUUGGAAGUUUGGACUGGGCGGAGCUCUACACAGCGUGGCAAAGUGGCUGCGGCUAGACUGCCUCUCUGGAUUCCUUGUCACUCAGCAGGGCAUCUCUGAGAGAAAUGCC, for which the self-cleavage is 0.06.

In the case of UACGUAGGUGGUUUUCCCCUGAUAGUGCUAAGGGGGUCUGGAAGUUUGGACUGGGCAGAGCUCAACACAGCGCGGCAAAGUGGCUGUGGCUAAACUGCCUCUCUGGAUUCCUCCUCACUCAGCAGGGCAUCUCUGAGAGAAAUGCC, the self-cleavage is 0.02. As for UACGUAGGUGGUUUUCCCCUGAUAGUGCUAAGGGGGUCUGGAAGUUUGGACUGGGCAGAGCUCAACACAGCGUGGCGGAGUGGCUGUGGCUAGACUGCCUCUCUGGAUUCCUCGACUCUCAGCAGGGCAUCUCUGAGAGAAAUGCC, the self-cleavage is 2.25. Take UACGUAGGUGGUUUUCCCCUGAUAGUGCUAAGGGGGUCUGGAAGUUUGGACUGGGCAGAGCUCAACACAGCGCGGCAAAGAGGCUGUGGCUAGACUGCCUCUCCGGAUUCCUCGUCACUCCGCUGGGCAUCUCUGAGAGAAAUGCC: the self-cleavage worked out at 2.42. As for UACGUAGGUGGUUUUCCCCUGAUAGUGCUAAGGGGGGCUGGAAGGUUGGACUGGGCAUAGCUCAACACAGCGUGGCAAAGUGGCUGUGGCUAGACUGCCUCUCUGGAUUCCUCGUCACUCAGCAGGGCAUCUCUGAGAGAAAUGCC, the figure is 0.09; as for UACGUAGGUGGUUUUCCCCUGAUAGUGCUAAGGGGGCUUGGAAGUUUGGACUGGGCGGAGCUCAACACAGCGUGGCAAAGUGGCUGUGGCUAGACUGCCUCUCUGGAUACCUCGUCACUCAGCAGGGCAUCUCUGAGAGGAAUGCC, 0.49.
